The target of one assay is FLAG-PKM1 (human) (UniProt P14618). The assay can be described thus: co-IP; HEK293T cells co-transfected with FLAG-PKM2 or FLAG-PKM1 and HA-JNK1, HA-JNK2 or empty vector; lysates immunoprecipitated with anti-FLAG M2-affinity gel for at least 4 h at 4 °C, washed four times with lysis buffer (50 mM Tris-HCl pH 7.5, 100 mM NaCl, 0.5% NP-40), western blot.
In another assay the target is FLAG-tagged PKM2 (human) (UniProt P14618). The description is as above.
The next assay has as its target recombinant active JNK1 (UniProt P45983). The assay can be described thus: pull-down; in vitro pull-down: purified rec. active JNK1 and His-PKM2 incubated, then IP with anti-JNK1 and western blot for PKM2; both purified. For orientation: Immunoblotting shows a protein as a band on a membrane.
For assay [1], the target named is endogenous JNK1 (human (endogenous in Huh7 and PLC5)) (UniProt P45983). As to the kind of experiment: co-IP; endogenous proteins; JNK1 immunoprecipitated with anti-JNK1 antibody from lysates of Huh7 and PLC5 cells expressing shNS or shPARP14, western blot for PKM2.

By UniProt entry, the sequences of proteins in these tests, tags left out. Where a name states a change or a piece, a line headed by the entry shows the natural chain unless it says otherwise. Chains listed by the source or under a name are the forms on record and can include a tag or linker.
UniProt P14618: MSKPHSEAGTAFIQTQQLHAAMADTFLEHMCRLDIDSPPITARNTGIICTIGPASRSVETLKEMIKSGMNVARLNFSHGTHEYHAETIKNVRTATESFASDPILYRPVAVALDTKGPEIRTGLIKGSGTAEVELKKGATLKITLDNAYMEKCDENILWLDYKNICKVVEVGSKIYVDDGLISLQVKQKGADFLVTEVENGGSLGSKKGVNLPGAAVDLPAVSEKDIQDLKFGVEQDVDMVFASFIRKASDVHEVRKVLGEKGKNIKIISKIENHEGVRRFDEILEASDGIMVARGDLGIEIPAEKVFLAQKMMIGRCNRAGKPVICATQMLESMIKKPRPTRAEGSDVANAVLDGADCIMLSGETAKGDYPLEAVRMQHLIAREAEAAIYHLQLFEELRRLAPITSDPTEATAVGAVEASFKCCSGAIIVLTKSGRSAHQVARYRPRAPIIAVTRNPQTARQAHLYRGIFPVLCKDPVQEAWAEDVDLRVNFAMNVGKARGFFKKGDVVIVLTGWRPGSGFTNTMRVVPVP
FLAG-PKM1 (P14618, form named): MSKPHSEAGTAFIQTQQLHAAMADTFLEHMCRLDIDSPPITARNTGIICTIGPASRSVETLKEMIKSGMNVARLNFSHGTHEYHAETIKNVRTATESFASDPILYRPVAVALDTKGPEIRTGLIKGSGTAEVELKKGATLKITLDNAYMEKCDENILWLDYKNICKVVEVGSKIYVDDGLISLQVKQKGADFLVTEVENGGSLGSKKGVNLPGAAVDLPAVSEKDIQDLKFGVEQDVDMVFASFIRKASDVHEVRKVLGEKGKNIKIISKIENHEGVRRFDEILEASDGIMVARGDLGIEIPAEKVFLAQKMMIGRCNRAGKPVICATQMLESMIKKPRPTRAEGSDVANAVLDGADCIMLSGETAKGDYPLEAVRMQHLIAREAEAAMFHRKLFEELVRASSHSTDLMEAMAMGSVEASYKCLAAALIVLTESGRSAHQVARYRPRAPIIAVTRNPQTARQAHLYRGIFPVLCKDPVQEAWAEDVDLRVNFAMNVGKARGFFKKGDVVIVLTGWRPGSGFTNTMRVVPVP
UniProt P45983: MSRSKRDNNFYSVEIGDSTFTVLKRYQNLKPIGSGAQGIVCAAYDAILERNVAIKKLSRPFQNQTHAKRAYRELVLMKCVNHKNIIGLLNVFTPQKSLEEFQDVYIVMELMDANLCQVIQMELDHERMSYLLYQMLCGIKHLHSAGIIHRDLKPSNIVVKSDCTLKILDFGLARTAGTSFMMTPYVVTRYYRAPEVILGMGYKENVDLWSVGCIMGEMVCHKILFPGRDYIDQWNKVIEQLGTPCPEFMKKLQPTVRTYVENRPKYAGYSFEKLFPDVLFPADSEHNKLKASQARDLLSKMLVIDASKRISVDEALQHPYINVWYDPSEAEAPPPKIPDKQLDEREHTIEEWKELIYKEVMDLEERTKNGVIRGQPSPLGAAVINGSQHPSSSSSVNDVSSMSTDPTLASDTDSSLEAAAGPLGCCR

Results are given in words; binding and its absence hold for the method and conditions named. For some assays here: In cells and extracts the contact can be indirect. Some results given as binding are weak or reduced against the parent protein; the word gives no strength.

Turning to “HA-JNK1 (from UniProt P45983 1-427) (enzyme)”, the binding entry was “no binding” in the assay with FLAG-PKM1 (human) and “binds” with FLAG-tagged PKM2 (human).

As for “HA-JNK2 (from UniProt P45984 1-424) (enzyme)”, the binding entry with FLAG-tagged PKM2 (human) was “no binding”.

As for “His-PKM2 (from UniProt P14618 1-531) (enzyme)”, the binding result with recombinant active JNK1 is given as “binds”.

As for “endogenous PKM2 (from UniProt P14618 1-531) (enzyme)”, in assay [1], the binding entry is “binds”.

For the origin of these results see paper PMC4918319.
